# Reference: the supplement of paper PMC3334620
# Over roughly 33,000 sequences, “E-score (-0.5 to 0.5)” has its median near -0.01; the highest 2% begin near 0.26. The list shows a part of the results.
# Molecular target: Ste12 (UniProt P13574)
# Assay: PBM E-score (8-mer binding enrichment) (E-score (-0.5 to 0.5)); higher = stronger / more preferred TF binding; most listed sequences are background and not binding sites
# Conditions: protein concentration: 200 nM; construct: GST-DNA-binding domain
# Procedure, shortened: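 Universal all-10-mer Agilent arrays, double-stranded by primer extension on fresh or once-stripped slides, were probed with about 100-200 nM GST-tagged yeast transcription factors made by PURExpress. Fluorescent anti-GST detected bound protein, and masliner normalised the scans. E-scores from the Universal PBM Analysis Suite were given to each ungapped eight-base word pooled with its reverse complement.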
row,Sequence,PBM E-score
1,ATTCGGGA,-0.141
2,CCATCGTA,-0.0808
3,CCCGGGAA,0.0209
4,AATTCTTA,0.112
5,CTGGAGGC,-0.077
6,AGTTTATC,0.162
7,CTTTGCCA,0.0679
8,ATTGCGGC,0.141
9,ATTATCTG,-0.00547
10,GACAGACA,0.102
11,AACATGTC,0.041
12,ATTAACGA,0.175
13,CGACAACG,-0.13
14,AACTGCGG,0.0169
15,CCGCCGAG,-0.114
16,ATCTTACG,0.00283
17,AAGTTTGG,0.158
18,AATAGAGG,-0.0453
19,AAATCGCT,-0.0741
20,CAGTAGCC,-0.132
21,AGAGTATG,-0.0802
22,CGATACAG,0.0754
23,CCAATTTC,0.0327
24,AAGATCGC,-0.215
25,CCGGGAAG,-0.0322

row,Sequence,PBM E-score
1,CCGTCCGA,-0.218
2,ACACGTCC,-0.112
3,CCAGTGGG,-0.175
4,GGTACTTA,-0.133
5,ACCTTTGC,-0.0226
6,ATAGAGTC,-0.217
7,CATTGACG,0.0435
8,CCGTAGCA,-0.219
9,GAACGAAA,0.177
10,AGGTTAAC,-0.123
11,AAGAGTGT,-0.141
12,CAAGAAGA,0.0251
13,AAAACCCG,0.142
14,CTATTCAC,0.0597
15,TGGTACCA,-0.0698
16,ACGACATG,-0.088
17,CAGCAATC,-0.0679
18,GGGTTAGA,-0.0645
19,CATCAACG,0.0777
20,ACATCACT,0.00353
21,GATAGGAC,-0.231
22,CGCAAGAG,-0.108
23,GGGGCTAC,-0.0752
24,ACGGTACT,-0.192
25,GGATAGAC,-0.108

row,Sequence,PBM E-score
1,ACCTACAT,0.0297
2,AAGCGATC,-0.148
3,TAATCCTA,-0.029
4,AAACACAC,0.243
5,AACATGAT,0.255
6,CACGAACC,0.00405
7,CCCTGCAG,-0.0705
8,CCTTCACG,-0.0235
9,GGCCAAGA,-0.112
10,CGTGAGAG,-0.313
11,AACTAAGT,0.0309
12,ATGTGTCC,-0.019
13,GGCTGGAA,-0.0751
14,CGTTTTGC,0.197
15,CCAAAGTC,-0.0993
16,CTGACAGC,0.0656
17,GCTGGGGA,-0.114
18,CTCGCACA,0.127
19,GCATTACA,-0.0746
20,CAAAAACC,0.128
21,CATATCTC,0.0308
22,GCCGAGAC,-0.168
23,CACTCCGC,0.0515
24,GCACTCCA,-0.161
25,ACTTTCAG,0.0489

row,Sequence,PBM E-score
1,GGTACGAC,-0.236
2,CATCCCAA,0.0892
3,CAGACAGA,-0.0178
4,ACGATCAT,-0.0808
5,GGCTACTA,0.0888
6,CTCGATGC,-0.127
7,CGCGGACC,0.183
8,AGTGGATC,0.0108
9,ATATGGCG,-0.0265
10,GGTCAAGA,0.108
11,CAGGGTAA,0.0319
12,CCTACTAG,-0.113
13,CAGGATCA,-0.0225
14,TATGGAAA,0.292
15,CGGACATC,-0.251
16,CGCCGAAA,0.151
17,CACGTGAA,-0.104
18,AGCACACG,-0.153
19,AAAATAAC,0.2
20,CCTTTGTA,-0.0872
21,CCACTGGG,-0.214
22,AGGCAATC,-0.136
23,ACTTTTCA,0.107
24,GTCGGCAC,-0.0727
25,ACGAATGC,-0.0304

row,Sequence,PBM E-score
1,AGCCCAAT,-0.139
2,ATCGCTTG,-0.15
3,AAGTACGT,-0.0519
4,CGGGATCA,0.0733
5,CGGTTACG,-0.0788
6,CTCTTCGC,-0.0664
7,CAGGGGAG,0.0382
8,ATTATAGA,-0.00838
9,CACTTAGG,-0.104
10,CTACCCAG,-0.0199
11,CCGCATCC,-0.0589
12,TAGCCTGA,-0.258
13,CTGAAGCA,0.116
14,ACAAAAGG,-0.156
15,AGGGTTCC,-0.0756
16,CCGGCGAC,-0.106
17,ACAATAAC,0.176
18,GCAACTCA,-0.0281
19,ACGTAATA,0.164
20,GGCCCTTA,0.0462
21,ATTGGGTA,0.0325
22,AATCGCAC,0.0035
23,AACACGAT,0.0313
24,CCACAGAA,0.0502
25,GAAAACGC,-0.195

row,Sequence,PBM E-score
1,GGTACATA,0.151
2,GATCGATA,0.0823
3,ATTTATTC,0.121
4,ACTAGAAC,-0.0111
5,AGGGGGAT,-0.123
6,GAATTTTA,0.227
7,ATGTGAGG,-0.0311
8,ACTTGCCA,-0.125
9,CTCATAGC,-0.14
10,ATCACCGC,0.106
11,ACCGAGCA,0.0351
12,ACTCGCCA,0.011
13,AGAGACTG,-0.121
14,AGTTAGAT,0.152
15,GGAATGCA,0.088
16,ACGCGTTA,0.0388
17,ACGAGTTG,0.0536
18,GTTTATCA,0.191
19,GGGCGAAA,0.0943
20,CAGAGACC,-0.167
21,AATAGAAG,0.0647
22,TAGCAGGA,-0.0358
23,AAGTTCTG,-0.0235
24,ATTCTGCC,0.136
25,CTGCTCGC,-0.11

row,Sequence,PBM E-score
1,CTGGATAC,0.0344
2,CGCGCGGA,0.0633
3,CTCGCCTC,-0.259
4,CTTAGAAA,0.174
5,GGTTAGAC,0.00723
6,AACCTCGG,0.0628
7,AAGCCTGG,-0.0472
8,CCTGTGGC,-0.225
9,ATGGATCA,-0.0779
10,CTGTCCGA,-0.0783
11,CACAAGAC,0.00539
12,AACAGGCT,0.0552
13,CATATCCA,-0.0826
14,CAAATCCC,-0.0801
15,AGGCCGAC,-0.0167
16,TTGGCCAA,-0.199
17,AAGAGTAT,-0.00836
18,AGCACAGC,-0.0983
19,TGGCTTAA,0.0154
20,AAGGTTCA,-0.103
21,TCGCTAGA,-0.179
22,TAACTCTA,0.0314
